The campaign covered roughly 110,000 compounds. About 230 (0.21%) showed an effect of 50% or more. This is one part of the list.
Each molecule was assayed against DPAP1 (Plasmodium falciparum, UniProt Q8IIJ9) (assay: primary screen, percent inhibition; read by cleavage of a fluorogenic dipeptide substrate; higher = more effect of the substance).
Set-up: species or system P. falciparum D10 trophozoite lysates; single well
Experimental: HTS was performed in black 384-well plates. The first and last two columns of each plate contained our negative (DMSO) and positive (10 μM JCP410) controls, and the 20 central columns the test compounds at 10 μM. Compounds were first diluted 50-fold into assay buffer (50 mM sodium acetate, 5 mM MgCl2, 10 mM β-mercaptoethanol, and 0.1% CHAPS, pH 5.5) from a 10 mM DMSO stock plates. One microliter of this 200 μM intermediate stock plate was dispensed into the assay plate. […] After 30 min, the reaction was quenched with 20 μL of 0.5 M acetic acid, and the fluorescent intensity measured at 523 nm (λex = 492 nm) using an Analyst HT multimode plate reader (Molecular Devices).
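Also: 30 min substrate incubation versus DMSO and 10 µM JCP410 controls.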

Chain of DPAP1 (Q8IIJ9 whole entry, looked up): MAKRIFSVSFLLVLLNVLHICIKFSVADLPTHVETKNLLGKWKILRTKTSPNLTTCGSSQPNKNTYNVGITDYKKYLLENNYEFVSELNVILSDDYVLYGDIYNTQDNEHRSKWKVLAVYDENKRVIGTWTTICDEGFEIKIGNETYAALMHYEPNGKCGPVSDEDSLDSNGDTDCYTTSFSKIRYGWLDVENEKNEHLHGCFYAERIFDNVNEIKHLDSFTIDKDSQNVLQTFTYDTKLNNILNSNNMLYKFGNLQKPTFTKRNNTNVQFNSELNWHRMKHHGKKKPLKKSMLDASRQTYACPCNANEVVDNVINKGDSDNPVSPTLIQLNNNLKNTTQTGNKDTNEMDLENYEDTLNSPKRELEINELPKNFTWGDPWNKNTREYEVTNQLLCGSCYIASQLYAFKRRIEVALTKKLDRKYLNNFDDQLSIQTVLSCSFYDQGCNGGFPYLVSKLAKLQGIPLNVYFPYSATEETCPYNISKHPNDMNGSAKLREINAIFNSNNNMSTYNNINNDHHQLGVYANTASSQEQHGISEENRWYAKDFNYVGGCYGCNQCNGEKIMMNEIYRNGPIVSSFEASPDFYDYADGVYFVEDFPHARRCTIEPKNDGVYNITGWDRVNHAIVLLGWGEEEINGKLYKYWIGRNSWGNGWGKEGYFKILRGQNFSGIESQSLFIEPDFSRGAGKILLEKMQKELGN

| Compound | % Inhibition @ 10 uM |
| --- | --- |
| Cc1cc(=O)oc(C)c1C(=O)NCc1c(F)cc(F)cc1F | -0.519% |
| Cn1c(=O)c2c(nc(NCCc3ccccc3)n2Cc2ccccc2F)n(C)c1=O | 0.0289% |
| CCc1c(CCC(C)=O)oc2ccc(C)cc12 | 0.132% |
| O=C(O)c1ccc(N2C(=O)c3cccc4cc(Br)cc(c34)C2=O)cc1 | -3.69% |
| CCCCCNc1nc(S)nc2cc(OC)c(OC)cc12 | 0.708% |
| CC(=O)N1CCN(CC(O)COc2ccc(Br)cc2)CC1 (stereo not drawn) | -3.18% |
| Cc1ccc(C2N3CCCN23)cc1 (stereo not drawn) | -2.88% |
| CCOc1ccc(C(=O)Nc2nc(-c3ccccc3)c(C)s2)cc1 | -1.02% |
| CSc1ccc(CN2CCN(Cc3ccc4c(c3)OCO4)CC2)cc1 | 0.847% |
| COCc1cc(C)nc(SCC(=O)NCc2ccccc2)c1C#N | 4.09% |
| Cc1cccc(OCCn2c(C3CCCO3)nc3ccccc32)c1 (stereo not drawn) | -2.99% |
| CCN(CC)C(=O)C1CCCN(Cc2ccc([N+](=O)[O-])cc2)C1 (stereo not drawn) | -0.0404% |
| O=C(Nc1ccc2c(c1)OCO2)c1cc2nc(-c3ccc4c(c3)OCO4)cc(C(F)(F)F)n2n1 | -2.29% |
| COc1cc(OC)cc(C(=O)Nc2nc(-c3nnn(-c4cc(Cl)ccc4C)c3C)ns2)c1 | -5.86% |
| CCC(=O)NS(=O)(=O)c1cc(Nc2cccc(Cl)c2Cl)ccn1 | -3.92% |
| CC1=[N+](C)C(C)(C)Cc2ccccc21 | 1.12% |
| COc1cc2cc(C(=O)O)[nH]c2c2c1OCCC2=O | -2.29% |
| COc1ccc(OCC(=O)Nc2cccnc2Cl)cc1 | 1.89% |
| CC(=O)Nc1ccc(NC(=O)C2CCN(S(=O)(=O)c3ccc(C)cc3)CC2)cc1 | 2.17% |
| Cc1nn(Cc2cccc(F)c2)c(C)c1NC(=O)c1c(Cl)cnn1C | -7.4% |
| CCCCC1CCC(C(=O)Nc2nc3ccccc3n2C)CC1 (stereo not drawn) | 0.98% |
| O=C(NC(=O)c1cccs1)Nc1nc(-c2ccc(F)cc2)cc(C(F)(F)F)n1 | -4.42% |
| COc1cccc(-c2cc(C(=O)N(C)C3CCCCC3)[nH]n2)c1 | -0.537% |
| CCOc1cc(C2NC(=O)c3c(sc4c3CCCC4)N2)ccc1O (stereo not drawn) | 10.2% |
| COc1ccc(OC)c(NS(=O)(=O)c2ccc3ccccc3c2)c1 | 6.1% |

| Compound | % Inhibition @ 10 uM |
| --- | --- |
| Cc1c(C(=O)N2CCCCC2)sc(NC(=O)c2ccc(F)cc2)c1C#N | -4.49% |
| CN1/C(=C\C(=O)Nc2ccc(Cl)cc2)c2ccccc2CC1(C)C | -4.98% |
| CCn1c(C(=O)NCCC(C)C)cc2oc3ccccc3c21 | -2.17% |
| Nc1ccc2oc(-c3ccc(-c4ccccc4)cc3)nc2c1 | 5.77% |
| Oc1ccc2occ(C(O)c3ccccc3)c2c1CN1CCOCC1 (stereo not drawn) | 2.4% |
| CC(C)c1ccc(NC(=O)Cc2ccc(-c3ccccc3)cc2)cc1 | -2.36% |
| CCOc1cccc(C(=O)Nc2nc3ccc(OCC)cc3s2)c1 | 2.92% |
| COc1ccc(C(=O)N2CCc3ccccc32)cc1 | 1.7% |
| Cc1ccc(-c2cc(C(=O)N3CCN(S(=O)(=O)c4c(C)nc(O)nc4O)CC3)[nH]n2)c(C)c1 | 2.75% |
| NC(=O)Cn1cnc2c(nnn2-c2cccc(Cl)c2)c1=O | -2.16% |
| COc1ccc(CC(=O)Nc2nc(-c3ccccc3)c(C)s2)cc1OC | -0.63% |
| CSc1nc(C)cc(Oc2ccc(OCc3ccccc3)nn2)n1 | -7.8% |
| CC(C)C[C@H](NC(=O)c1ccc(-c2ccccc2F)cc1)C(=O)NCC#N | -6.46% |
| CC(C)Cn1cc(NC(=O)N(Cc2ccco2)C2CCCCC2)c2ccccc2c1=O | -3.45% |
| Cc1ccc(NC(=O)Cn2ncc3c(=O)oc4ccc(C)cc4c32)nc1 | 1.62% |
| Cc1ccccc1OC(C)C(=O)Nc1cccc2cccnc12 (stereo not drawn) | -4.02% |
| CC1=CC(c2ccc(C)cc2)C=C(c2ccc(C)cc2)O1 (stereo not drawn) | -3.41% |
| CCN(CC)CCC(=O)c1ccc(O)cc1 | 3.18% |
| Cc1ccc(N2CC(C(=O)Nc3cc(Cl)cc(Cl)c3)CC2=O)cc1 (stereo not drawn) | -4.33% |
| COc1cc(S(=O)(=O)N2CCN=C2c2ccccc2)c(OC)cc1Cl | 0.245% |
| COc1ccc2oc(=O)c(-c3csc(NC4CCCCC4)n3)cc2c1 | 3.54% |
| CCCc1cc(O)n2nc(Cc3ccccc3)c(-c3ccc(OC)cc3)c2n1 | -3.77% |
| O=C(c1ccc([N+](=O)[O-])cc1Cl)N(Cc1ccccc1)Cc1ccccc1 | -7.28% |
| Cn1c(=O)[nH]c(=O)c2c1nc(N1CCOCC1)n2CCCc1ccccc1 | -1.07% |
| O=C(Nc1ccccc1)C1(c2ccccc2)CCC(O)C1 (stereo not drawn) | -1.88% |

| Compound | % Inhibition @ 10 uM |
| --- | --- |
| O=S(=O)(c1ccc(-c2ccc(O)nn2)o1)N1CCN(Cc2ccccc2)CC1 | -7.36% |
| CC1(C)CC(=O)c2c(O)c(-c3ccccc3)c(=O)n(-c3ccccc3)c2C1 | -0.25% |
| Cc1ccc(-n2nc3c(=O)n(CCCC(=O)N4CCc5ccccc5C4)nc(C)c3c2C)cc1 | -6.53% |
| CCOc1ccc(C(=O)n2nnc3ccccc32)cc1 | 6.59% |
| NC(=O)c1c(NC(=O)Nc2cccc(Cl)c2)sc2c1CCCC2 | 0.13% |
| N#Cc1ccccc1CSc1nc2ccccc2o1 | 3.31% |
| O=S1(=O)C(/C=N/c2cccnc2)=C(O)c2sccc2N1Cc1ccccc1 | 8.83% |
| CC1=C(C(=O)Nc2ccccc2)C(c2ccccc2)n2c(s/c(=C/c3cnn(C)c3C)c2=O)=N1 (stereo not drawn) | -3.03% |
| Cc1nnc2c(N3CCOCC3)nc3ccccc3n12 | 6.83% |
| CC1CCN(C(=O)c2ccc(C(C)(C)C)cc2)CC1 | -1.56% |
| Cc1ccc(CNC(=O)Cn2ncc3c4ccccc4n(Cc4ccccc4F)c3c2=O)cc1 | 4.95% |
| CC(C)OCCCNC(=O)c1ccc(CS(=O)(=O)c2ccc(Cl)cc2)o1 | -2.72% |
| COCCCNC(=O)c1nnc(Cc2cccc(F)c2)o1 | -7.32% |
| COc1ccc(C2(C(=O)Nc3ccccc3OC)CCOCC2)cc1 | -2.34% |
| COc1ccc(C(=O)CCc2ccccc2O)c(OC)c1 | -4.01% |
| COc1ccc(/C=C(\NC(=O)c2ccccc2)C(=O)N2CC3CC(C2)c2cccc(=O)n2C3)cc1OC (stereo not drawn) | 17% |
| Cc1ccc(S(=O)(=O)/N=C2\C=C3N(CCO)CCOC3(O)c3ccccc32)c(C)c1 (stereo not drawn) | -5.38% |
| CC[C@@H](C)[C@H](NC(=O)c1cccc(NC(N)=O)c1)C(=O)N[C@@H](CCc1ccccc1)C(=O)CO | -2.55% |
| O=C(CCc1ccccc1)N1CCN(C(c2ccccc2)c2ccccc2)CC1 | 3.05% |
| Cc1nn(-c2cccc(Cl)c2)c2nc(-c3ccncc3)cc(C(F)(F)F)c12 | 3.88% |
| N#CCNC(=O)[C@H](CC1CCCCC1)NC(=O)OCc1ccccc1 | -3.49% |
| CCCn1c2ccccc2c2cnn(CC(=O)N(CCN(C)C)Cc3ccccc3)c(=O)c21 | 3.72% |
| COc1cc(C2Nc3ccccc3N=C3CC(c4cccs4)CC(O)=C32)cc(OC)c1OC (stereo not drawn) | -2.45% |
| CC(=O)Nc1ccc(NC(=O)CSCc2ccccc2Br)cc1 | 2.67% |
| Cc1cc(C)c(S(=O)(=O)N(C)CC(=O)N2CCCC2)c(C)c1 | 4.44% |

| Compound | % Inhibition @ 10 uM |
| --- | --- |
| Cc1ccc(OCC(=O)O/N=C(\N)Cc2ccc(Cl)cc2)cc1 | -4.93% |
| C=CCn1c(SCCC(C)C)nc2c1c(=O)[nH]c(=O)n2C | -6.38% |
| O=C(NC(=O)C(F)(F)F)Nc1cccc2ccccc12 | -7.32% |
| Cc1c(C)n(Cc2ccc(F)cc2)c2ccc(C(=O)NC3CC3)cc12 | 4.44% |
| Cc1ccc(C(=O)N(Cc2ccc(C)o2)C2CCS(=O)(=O)C2)cc1 (stereo not drawn) | -1.11% |
| COC(=O)c1c(NC(=O)c2nc(S(C)(=O)=O)ncc2Cl)sc2c1CCCC2 | 0.569% |
| COc1cccc(-c2ccc(C(=O)N[C@@H](CC(C)C)C(=O)NCC#N)o2)c1 | -4.93% |
| Cc1ccc(C(C)C)c(OCC(=O)Nc2ccc(S(=O)(=O)N3CCCC3)cc2)c1 | -0.48% |
| Brc1ccc(CN2CCN(C/C=C/c3ccccc3)CC2)s1 | -0.969% |
| CN1CCN(c2ncnc3onc(-c4cccc(Cl)c4)c23)CC1 | 1.15% |
| COc1ccc(CNC(=O)Cc2c(C)c3cc(Cl)c(O)cc3oc2=O)cc1OC | 5.68% |
| COCc1cc(C)nc(SCC(=O)N2CCOCC2)c1C#N | 2.48% |
| O=C(C1CCN(S(=O)(=O)c2cc(Cl)ccc2Cl)CC1)N1CCCC1 | -3.49% |
| COc1ccc(C(=O)NCc2nc(-c3ccc(C)cc3)no2)c(OC)c1 | -4.82% |
| Cc1ccc(C2CC(C(F)F)n3ncc(C(=O)NCc4ccco4)c3N2)cc1 (stereo not drawn) | -0.28% |
| Clc1ccc(N2CCCC3CCCCC32)nn1 (stereo not drawn) | -0.764% |
| Cn1c(SCC(=O)NCc2ccccc2)nnc1-c1ccc(C(C)(C)C)cc1 | 0.0719% |
| CC1(C)Cc2ccccc2C(/C=C(\O)c2ccccc2[N+](=O)[O-])=N1 | -3.27% |
| O=C(Nc1cc(F)ccc1F)c1cccc(OC(F)F)c1 | -1.6% |
| CC(C)NCC(=O)C12CC3CC(CC(C3)C1)C2 | -0.711% |
| Cc1oncc1C(=O)Nc1ccc(C(C)(C)C)cc1 | -3.45% |
| O=C(N/C(=C\c1ccccc1)C(=O)N1CCN(c2ccccc2)CC1)c1ccccc1 | 4.09% |
| O=C(Nc1ccc(CN2CCOCC2)cc1)c1ccc(Cl)cc1Cl | -5.27% |
| Cc1cc(C(=O)NCCCN2CCCC(C)C2)c2c(C)nn(-c3cccc(Cl)c3C)c2n1 (stereo not drawn) | 4.52% |
